Over roughly 110,000 compounds, “z-score” has its median near -0.1; the highest 2% begin near 2. The list shows a part of the results. Activity calls are given as the source filed them.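 The calls were made as follows: active = z-score in the third read window above 3 or below -3; inactive = the rest.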
The compounds below were run against Metabotropic glutamate receptor 8 (Rattus norvegicus) (UniProt P70579) (assay: rat mGluR8 modulators via GIRK flux, primary screen, cell-based, thallium flux, HTS (AID 488969)). Conditions: HEK293 rat mGluR8, GIRK (G protein-gated inwardly rectifying potassium channel) thallium flux, FluoZin2; at 10 µM; stronger effect = higher value; submaximal glutamate (EC20) added with thallium.
UniProt P70579, sequence (P70579 whole entry, looked up): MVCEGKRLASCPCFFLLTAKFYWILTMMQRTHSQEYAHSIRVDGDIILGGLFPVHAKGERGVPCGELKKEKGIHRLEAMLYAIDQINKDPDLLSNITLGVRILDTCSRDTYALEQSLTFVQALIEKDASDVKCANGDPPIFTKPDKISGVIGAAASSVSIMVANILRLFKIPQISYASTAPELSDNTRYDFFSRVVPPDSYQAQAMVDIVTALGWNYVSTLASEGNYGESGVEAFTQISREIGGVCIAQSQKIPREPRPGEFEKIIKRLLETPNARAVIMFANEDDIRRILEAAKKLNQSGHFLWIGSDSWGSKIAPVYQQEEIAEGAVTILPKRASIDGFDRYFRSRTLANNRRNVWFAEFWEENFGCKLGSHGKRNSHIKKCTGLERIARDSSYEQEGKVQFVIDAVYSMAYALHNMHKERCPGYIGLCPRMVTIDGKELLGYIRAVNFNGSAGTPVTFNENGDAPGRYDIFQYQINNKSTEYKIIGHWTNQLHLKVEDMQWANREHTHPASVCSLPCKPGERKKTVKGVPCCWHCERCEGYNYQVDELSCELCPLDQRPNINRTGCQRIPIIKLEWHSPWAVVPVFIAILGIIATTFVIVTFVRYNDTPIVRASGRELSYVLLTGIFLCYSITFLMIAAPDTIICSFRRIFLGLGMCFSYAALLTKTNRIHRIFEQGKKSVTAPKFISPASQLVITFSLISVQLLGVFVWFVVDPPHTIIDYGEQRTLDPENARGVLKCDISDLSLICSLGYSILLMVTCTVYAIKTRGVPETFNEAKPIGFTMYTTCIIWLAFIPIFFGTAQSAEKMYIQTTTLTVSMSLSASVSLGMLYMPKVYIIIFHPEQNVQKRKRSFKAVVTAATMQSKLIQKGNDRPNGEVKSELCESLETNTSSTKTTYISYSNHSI
In the case of COc1cc(/C=N/Nc2nc(Nc3ccccc3)nc(-n3nc(C)cc3C)n2)cc(OC)c1OC, the z-score was -0.633. In the case of Cc1ccc(Nc2nc(=O)c3cccnc3s2)cc1, the z-score was 0.389. CS(=O)(=O)c1ccc(C(=O)Nc2cc(S(C)(=O)=O)ccc2Cl)cc1 was tested, and the z-score was -0.245. C=CCn1c(SCC(=O)NC(=O)NCCC)nnc1C1CCCCC1 showed a z-score of 0.189. With Cc1csc(C(=O)O)c1-c1c(C)csc1C(=O)O the z-score was -1.45. Work on O=C(CNc1cc(S(=O)(=O)N2CCCC2)ccc1OCC(F)(F)F)Nc1ccc(SC(F)F)cc1 yielded a z-score of -0.207. For CCC1(CC)NC(=S)N(Nc2ccccc2)C1=O, the z-score was -0.845. With COc1cccc(-c2cc(C(F)(F)F)c3c(N)c(C#N)sc3n2)c1 the z-score was -0.0936. Compound CNC(=O)c1c(NC(=O)c2nc3ccccc3s2)sc2c1CCC2 has a z-score of -0.521. O=C(O)CCn1[nH]c(=O)c2ccccc2c1=O was tested, and the z-score was -0.184. Work on Cc1cc(C)c(S(=O)(=O)N(C)CC(=O)N2CCCCC2)c(C)c1 yielded a z-score of 0.255. CC1(C(=O)c2ccccc2)C2c3c(ccc4ccccc34)OC(=O)C21C(=O)N1CCOCC1 (stereo unspecified) showed a z-score of 0.0222. Cc1cc(C)c(S(C)(=O)=O)c(Oc2ccccc2C)n1 was tested, and the z-score was -0.0363. For COc1ccc(/C(=C/c2ccc(OC(F)F)c(OC)c2)C(=O)O)cc1OC, the z-score was -0.452. Work on O=c1oc(/C=C/c2ccco2)nc2sc3c(c12)CCC3 yielded a z-score of 0.11. CCOC(=O)CN1C(=O)CN(c2ccc(C)cc2)C1=O showed a z-score of -0.161. Cc1cccc(NC(=O)CSc2ncnc3nc[nH]c23)c1 was tested, and the z-score was -0.964. For COc1cc(CNc2ccc(N3CCCC3)cc2)ccc1OCc1ccccc1F, the z-score was -0.289. O=C(COc1ccccc1)NNC(=O)c1cc2ccccc2oc1=O showed a z-score of -0.00605. COc1ccc(/C=N/NC(=O)c2ccc(Cn3cc([N+](=O)[O-])cn3)o2)cc1O showed a z-score of -0.561. Work on CCn1c(CN2CCN(C(=O)c3ccco3)CC2)nc2c1c(=O)n(C)c(=O)n2C yielded a z-score of -0.377. In the case of Cc1noc(C)c1C(=O)OCC(=O)NC1CC1, the z-score was -0.106. Work on CC(C)(C)N1NC(=O)Nc2ccccc2C1=O yielded a z-score of 0.147. For Cc1cccc(-n2cc(-c3ccccc3)c3c(NN4CCOCC4)ncnc32)c1, the z-score was 0.0634. O=C(Nc1ccccc1Br)C1CCC(=O)N1Cc1ccccc1Cl (stereo unspecified) was tested, and the z-score was 0.19. For CCCCOc1cc(=O)[nH]c(=O)[nH]1, the z-score was 0.151. CCOC(=O)c1nnn(-c2ccccc2C#N)c1C showed a z-score of 0.453. In the case of O=C(Nc1ccc(F)cc1)c1cccnc1N1CCCCC1, the z-score was 0.149. For O=C(NCc1ccccc1Cl)C1CCCN(S(=O)(=O)c2cccc3nsnc23)C1 (stereo unspecified), the z-score was 1.16. CCOC(=O)c1c(NC(=O)CN2C(=O)NC3(CCC(CC)CC3)C2=O)sc(C)c1-c1ccc(C)cc1 (stereo unspecified) was tested, and the z-score was -0.196. Cc1ccc(-c2csc3ncnc(SCC(=O)NCc4ccc5c(c4)OCO5)c23)cc1 showed a z-score of -0.257. Compound COc1ccc2nc(C)cc(SCC(=O)N/N=C/c3cccc4ccccc34)c2c1 has a z-score of -0.178. With CC(C)c1ccc(C(=O)NCCCN2CCN(CCCNC(=O)c3ccc(C(C)C)cc3)CC2)cc1 the z-score was -0.135. With COc1ccc(CNC(=O)C2CCCN2S(=O)(=O)c2ccc(Cl)cc2)cc1 (stereo unspecified) the z-score was -1.04. CCCCCOc1ccc(C(=O)NCC2(c3ccccc3)CCOCC2)cc1 showed a z-score of -0.243. Compound OC(CN1CCN(c2ccccc2)CC1)c1ccc2c(c1)CCN2 (stereo unspecified) has a z-score of -0.587. In the case of COc1cc(CNCCO)ccc1OC1CCCC1, the z-score was 0.566. Compound CC(=O)Nc1ccccc1C(=O)C(=O)Nc1ccc(C)c(C)c1 has a z-score of 0.146. CC(NS(=O)(=O)c1ccccc1)C(=O)Nc1ccc(S(N)(=O)=O)cc1 (stereo unspecified) gave a z-score of 0.246. Cc1nc2cc(-c3ccccc3)nn2c(C)c1CCC(=O)NCc1ccco1 was tested, and the z-score was 1.6. In the case of COc1cccc(NC(=O)CN2CCN(c3nc(-c4cccc(OC)c4)cs3)CC2)c1, the z-score was 0.209. Work on COc1ccc(C(=O)COC(=O)C(C(C)C)N2C(=O)C3C4C=CC(C4)C3C2=O)cc1 (stereo unspecified) yielded a z-score of -0.269. Work on O=C(NC(=S)Nc1ccc(Br)cn1)c1cncc(Br)c1 yielded a z-score of 0.371. Cc1cccc(/C=N/NC(=O)Cn2nccc2C)n1 gave a z-score of -0.0556. With CC1(C)CC(=O)C2=C(C1)N(c1ccccc1)C(=O)CC2c1ccsc1 (stereo unspecified) the z-score was -0.712. For CCOC(=O)c1c(C)oc(/N=C/c2ccccc2O)c1C#N, the z-score was -0.204. Cn1c2c(c(=O)n(C)c1=O)C(NC(=O)C(C)(C)C)(C(F)(F)F)C(=O)N2 (stereo unspecified) was tested, and the z-score was 0.115. CC(C)(C)c1cc(C(=O)N/N=C/c2ccc(F)cc2)n(-c2ccccc2)n1 showed a z-score of -1.22. Cc1ccccc1Cn1c(=N)n(CC(O)c2ccco2)c2ccccc21 (stereo unspecified) was tested, and the z-score was active: 3.34. With COc1cc(S(=O)(=O)N2CCN(c3ccccc3)CC2)ccc1Cl the z-score was -0.282. O=C(CC1NCCNC1=O)Nc1ccc(Oc2ccccc2)cc1 (stereo unspecified) gave a z-score of 0.267. CCC(=O)NC(Nc1cc(C)ccn1)(C(F)(F)F)C(F)(F)F showed a z-score of -0.164. COc1cccc(NC(=O)COC(=O)c2cccnc2)c1 gave a z-score of 0.159. O=C(NCCCc1ccccc1)c1ccccc1O showed a z-score of -0.211. Compound O=C(Nc1ccc(F)cc1)Nc1nnc(-c2ccncc2)s1 has a z-score of -0.449. For CC(C)CC(C(=O)NCC1CCCO1)N(C(=O)Cn1nnc(-c2ccc(F)cc2)n1)c1ccccc1F (stereo unspecified), the z-score was -0.107. Compound CCN1CCN(S(=O)(=O)c2ccc(OC)c(Br)c2)CC1 has a z-score of 0.352. Cc1ccc(SCCC(=O)NC(C)C)cc1 showed a z-score of -0.0923. O=C1CN(C(=O)COC(=O)/C=C/c2ccc(OC(F)F)cc2)c2ccccc2N1 showed a z-score of 0.00817. CNC(=S)NNC(=O)c1sccc1OCc1cccc(C(F)(F)F)c1 gave a z-score of -0.766. COc1ccc(-c2nnc(SCc3nnc(-c4ccccc4)o3)n2-c2ccccc2)cc1 was tested, and the z-score was -0.379. Cc1nnsc1NC(=O)OCc1ccc(C(C)(C)C)cc1 gave a z-score of -0.226. In the case of CC(c1ccco1)N(C(=O)c1cccs1)c1ccccn1 (stereo unspecified), the z-score was -0.72. Compound Cc1ccc(S(=O)(=O)/N=C(\CSC(N)=O)Nc2ccccc2)cc1 has a z-score of -0.288. With O=C(NNC(=O)c1cccs1)c1ccc(Cl)c(Cl)c1 the z-score was -0.19. For CC1CN(C2CCN(S(=O)(=O)c3ccccc3)CC2)CC(C)O1 (stereo unspecified), the z-score was -0.675. With CCN(CCNC(=O)C1CCCN(S(=O)(=O)CC)C1)c1ccccc1 (stereo unspecified) the z-score was 0.155. COc1ccc(NC(=O)/C(Cl)=C(/Cl)S(=O)Cc2ccc(C)cc2)cn1 (stereo unspecified) was tested, and the z-score was -0.487. Cc1ccc(-c2csc3ncn(-n4c(C)ccc4C)c(=O)c23)o1 gave a z-score of 0.169. Work on O=C(Nc1cc(C(F)(F)F)ccc1N1CCOCC1)c1ccccc1F yielded a z-score of -0.126. Compound COc1cccc(N2CCN(Cc3nc(N)nc(N4CCCc5ccccc54)n3)CC2)c1 has a z-score of -0.422.

— PubChem BioAssay AID488969 (Vanderbilt High Throughput Screening Facility, 2010)
